Assay results from the supplement of paper PMC3334620.
Over roughly 33,000 sequences, “E-score (-0.5 to 0.5)” has its median near -0.032; the highest 2% begin near 0.36. The list shows a part of the results.

These sequences were tested against T1, Sko1 (UniProt Q02100) (assay: PBM E-score (8-mer binding enrichment) (E-score (-0.5 to 0.5)); higher = stronger / more preferred TF binding; most listed sequences are background and not binding sites). Conditions: protein concentration: 200 nM; construct: GST-full length.
T1 sequence: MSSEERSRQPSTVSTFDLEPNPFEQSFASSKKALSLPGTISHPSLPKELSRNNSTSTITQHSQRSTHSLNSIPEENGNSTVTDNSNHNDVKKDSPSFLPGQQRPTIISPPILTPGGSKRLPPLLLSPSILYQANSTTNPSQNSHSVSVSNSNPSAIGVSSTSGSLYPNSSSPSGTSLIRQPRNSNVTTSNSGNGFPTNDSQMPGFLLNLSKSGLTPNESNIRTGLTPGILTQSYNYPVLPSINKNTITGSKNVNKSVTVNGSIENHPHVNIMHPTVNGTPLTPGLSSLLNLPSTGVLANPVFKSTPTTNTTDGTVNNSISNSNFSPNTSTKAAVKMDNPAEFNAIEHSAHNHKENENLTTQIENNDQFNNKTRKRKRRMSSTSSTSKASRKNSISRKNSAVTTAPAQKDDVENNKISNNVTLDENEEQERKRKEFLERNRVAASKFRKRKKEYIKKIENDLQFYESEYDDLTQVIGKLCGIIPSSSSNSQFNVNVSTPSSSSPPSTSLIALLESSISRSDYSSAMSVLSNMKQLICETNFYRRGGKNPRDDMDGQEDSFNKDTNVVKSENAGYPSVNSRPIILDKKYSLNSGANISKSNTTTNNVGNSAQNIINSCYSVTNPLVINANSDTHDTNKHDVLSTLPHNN
Procedure: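 Universal 'all 10-mer' protein binding microarrays (Agilent AMADID 015681) probed with GST-tagged S. cerevisiae TFs (full-length or DBD) made by in vitro transcription/translation (PURExpress), about 100-200 nM. Bound TF was detected with fluorescent anti-GST. Each ungapped 8-mer (which stands for itself and its reverse complement) is scored by the PBM enrichment score (E-score), a modified Wilcoxon-Mann-Whitney statistic from -0.5 to +0.5, computed with the Universal PBM Analysis Suite. Scale: above 0.35 generally sequence-specific binding.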

Sequence	PBM E-score
ACGGCACT	-0.14
AAAACTCA	0.0634
GAATGATA	0.228
CCGTCCTA	-0.118
ACAGCTAT	-0.133
CAGTGACG	0.408
GCTGTTAA	0.164
ACGCGTTG	0.232
CTTACGCC	0.193
ATCGGGTA	-0.111
TACATCGA	0.0499
AGGAATCC	-0.243
CCAGTTCG	-0.0346
CAGGCCCA	-0.133
GTACCAAC	0.219
ATCGAAAC	0.0876
GCCTAAAA	-0.123
CCTGCGCA	-0.179
ACGCTGAC	0.236
CTCCTCGC	-0.259
ATATGCGG	-0.0141
AGCCGCTC	-0.101
AGCGCCAT	-0.295
ACGGAGTG	-0.0307
CAAGTACC	-0.0542

Sequence	PBM E-score
AGGTCGGC	-0.336
AGATCCCT	-0.16
AACTCTAG	0.125
AGCCGCTG	-0.164
CACCTTCA	-0.146
ACCCGTGA	0.0498
ACCACACC	-0.165
CTGCTAAC	-0.187
GGGACCCC	-0.328
AAGGAGGT	-0.361
CTTCCCTA	-0.242
ACTCCAAA	0.00489
ACCATCCC	-0.118
AGTTGCCA	-0.218
CCTGTCGA	-0.255
CTGGTAAC	0.038
AAAATGAG	0.162
AATGACGG	0.388
CACAGGGG	-0.254
CACTGTGC	-0.00954
GGGGAAGA	-0.0521
ATCGCTAG	-0.0122
TGCGAACA	0.0843
AAGACAGT	-0.0571
AGTAGAAG	-0.0555

Sequence	PBM E-score
ACAGGGGC	-0.25
CCCCGAAC	-0.317
CAGTGGTA	0.0373
AAGGGGAA	-0.147
GCACCCAC	0.144
AATCTGGG	-0.0944
ATAAGCGG	0.015
AACAGACT	0.0398
AGCTAGGA	-0.3
ACTAGGAT	0.0968
CCCGTACC	-0.273
CAGTTAGC	-0.181
AAACTGAG	-0.159
AACGATCA	0.011
GTGGCCGA	-0.0715
AGCAGGAC	-0.0677
GTGGATTA	0.0711
CACTCAGA	-0.0015
GATTCTCC	-0.28
ATGACCGG	-0.0369
TATGTGGA	0.138
AGTATTTC	0.108
CCCCTGAC	-0.0317
CCCTTCAA	-0.0706
AAACTCGT	0.18

Sequence	PBM E-score
TAGGAGAA	-0.0901
AAATCGGT	-0.125
ACTCGAGC	0.00328
AACGTTTC	0.199
GGACGACA	0.0412
GGTAGTGA	-0.115
CGCAGAAA	0.0541
CAGTAAAG	0.0535
ATTGGCCC	-0.325
CCGCGGAC	-0.315
ATACTACA	0.211
AACTTAAA	0.168
CACCAGCG	-0.152
AATGAGAG	-0.0546
AACACTGT	0.0285
CTTGCCCA	-0.163
GACGGAAA	0.0994
ACACGGGG	-0.242
AGTCAGTG	-0.212
AGGAAACC	-0.104
AAATTTCG	0.218
AGCAGCCT	-0.241
GGGTAAAA	0.149
CCGTAAAA	0.053
GCATTCGA	-0.00419

Sequence	PBM E-score
CAGCAAAA	0.139
CCCCCGCG	-0.254
TCGTCTCA	-0.0858
CTCTTACC	0.00012
CACCAACG	-0.063
AAAGCTAC	-0.0321
CTCCTCTA	-0.229
CTTAAAAC	0.151
CATTAAAG	0.132
CGCCGGCG	-0.192
CGCTAGAC	-0.184
ACAACACC	-0.0425
AATCGGGT	0.047
CAGTCGTA	0.0343
GAAGTACC	-0.088
GTCTCGCA	-0.11
GAAATAGA	0.191
GGCCCCCC	-0.429
TATAGAAA	0.0683
AAAGTACC	-0.0499
CCTCCGCG	-0.275
AGACCGTC	-0.227
ACATAGGC	0.0432
CTTCTACC	-0.3
CCGATGTA	-0.0112

Sequence	PBM E-score
ATAGCCAC	0.0887
CTGCGGGC	-0.314
CTGCGGCC	-0.273
GTTCGCAA	0.212
AATATCAG	0.0929
ACTATAGT	0.222
ATCGAAAA	0.159
GCGTCACC	0.341
CAGAAACG	0.204
CTGAAATA	0.0841
AACCTTCC	-0.0961
TAATTACA	0.263
AAAGTTTA	0.132
GATGAAAC	0.113
CGGGCGCA	-0.219
GGTTTACA	0.112
AAGGCCTG	-0.243
ACCATACG	0.27
AGCGAATG	-0.219
AGCGGGGC	-0.21
ATTAGCTG	0.0251
AAACATGC	0.0851
AGTAACGC	0.035
CCATAAGA	-0.0709
GAACTAGC	-0.187

Sequence	PBM E-score
CTCATGAG	0.135
ATCCAAAA	0.0858
GCTTCAGA	-0.2
AGATTCAG	-0.0409
CAAAGGGG	-0.222
CCTAGGCC	-0.252
ACTCTCCT	-0.151
AGCCAGCG	-0.188
CGGAGTGA	0.0511
ACTCTCTA	-0.188
AATGTCAG	-0.0112
CAAAGATC	0.0358
GCCGACGC	-0.163
ACCGGCAA	-0.226
GACGACAC	0.235
CAGATGAA	0.0113
AACAGCCG	-0.186
ACAGCATA	0.115
AGTTTACC	0.0666
GCAGCGCA	-0.186
CTTTATCA	0.0572
CACAACTC	-0.0292
AAACGCCC	-0.0956
ATGCATCA	0.331
GCATCTCA	0.0742

Sequence	PBM E-score
CAAACAAG	-0.161
ATACAAGG	0.02
GGAGACAC	0.0215
CACTATAC	0.105
AATGTGTA	0.0847
AGGGACGG	-0.292
CGCCGCGC	-0.166
GAGTGAAC	-0.0541
TATCGCAA	0.00541
CAGAAGCC	-0.118
ACTTAACA	0.153
ACAAAGCA	0.0979
AGCTCACG	0.0675
CGCTACAC	-0.0096
ATACCTGC	-0.102
CGAGACAA	-0.164
ATCGTAAT	0.401
AGCTAATG	0.114
CCATTCAA	0.0152
ATGTTTTC	0.162
ATCAAATA	0.0825
GATGTGCA	0.0304
CAAGAACG	0.109
ATGGTTGC	-0.159
ATCCTAAT	0.185

Sequence	PBM E-score
ATCATCTA	0.0859
ACCCAGCA	-0.216
CATTGGCG	-0.129
ATAGTGAC	0.328
CACCCAGA	-0.0976
CCTTGTTC	-0.127
GCAGCGAA	0.0105
AGGAACAG	-0.18
CTACAGAC	-0.118
ATTCTAGG	0.0401
ATCTGAGG	-0.0702
CGACCCAA	0.0774
GAATTGTC	0.0358
CTCCCGCC	-0.0669
AGCAGAGG	-0.306
ACGTTCTC	0.308
CGCTTCAC	-0.0397
GGGGAACA	-0.314
ATACCCGA	-0.112
